Out of some 310,000 compounds screened, about 2,200 (0.71%) showed an effect of 50% or more. The effect is printed as a negative number. The list shows a part of the results.
target: human ether-à-go-go-related gene (hERG) potassium channel (human, UniProt Q12809); test: primary screen, population patch clamp on CHO cells stably expressing hERG
Sequence (Q12809 whole entry, looked up): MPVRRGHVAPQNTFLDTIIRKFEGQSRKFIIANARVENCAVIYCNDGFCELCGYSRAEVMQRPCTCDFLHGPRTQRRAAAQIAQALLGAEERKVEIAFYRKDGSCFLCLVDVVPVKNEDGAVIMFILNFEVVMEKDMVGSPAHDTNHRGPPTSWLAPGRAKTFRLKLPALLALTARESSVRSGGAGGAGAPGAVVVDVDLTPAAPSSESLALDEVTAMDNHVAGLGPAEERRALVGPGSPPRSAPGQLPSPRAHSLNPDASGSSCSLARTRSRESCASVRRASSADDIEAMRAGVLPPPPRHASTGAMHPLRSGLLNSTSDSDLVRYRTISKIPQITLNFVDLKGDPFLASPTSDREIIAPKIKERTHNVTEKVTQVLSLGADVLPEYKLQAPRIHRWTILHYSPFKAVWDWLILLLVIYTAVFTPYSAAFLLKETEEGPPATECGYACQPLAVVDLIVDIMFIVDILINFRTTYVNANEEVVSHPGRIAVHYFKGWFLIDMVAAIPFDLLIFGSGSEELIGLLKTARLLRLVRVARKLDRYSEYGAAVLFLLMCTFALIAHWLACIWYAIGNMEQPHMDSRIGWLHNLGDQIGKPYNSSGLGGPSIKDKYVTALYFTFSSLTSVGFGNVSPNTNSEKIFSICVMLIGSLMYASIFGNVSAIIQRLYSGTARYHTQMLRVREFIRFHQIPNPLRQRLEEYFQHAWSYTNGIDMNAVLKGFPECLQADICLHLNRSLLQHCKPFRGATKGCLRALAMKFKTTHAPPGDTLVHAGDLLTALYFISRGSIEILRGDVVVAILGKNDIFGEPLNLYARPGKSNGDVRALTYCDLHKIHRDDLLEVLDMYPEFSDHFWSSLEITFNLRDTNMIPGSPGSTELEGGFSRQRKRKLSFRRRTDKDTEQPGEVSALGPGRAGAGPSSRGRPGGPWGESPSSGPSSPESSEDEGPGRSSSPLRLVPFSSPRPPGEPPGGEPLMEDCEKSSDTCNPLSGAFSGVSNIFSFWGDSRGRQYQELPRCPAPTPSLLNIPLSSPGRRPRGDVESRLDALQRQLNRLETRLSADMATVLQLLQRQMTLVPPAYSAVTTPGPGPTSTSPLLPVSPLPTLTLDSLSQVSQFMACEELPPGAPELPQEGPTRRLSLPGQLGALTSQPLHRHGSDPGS

| Compound | hERG current change (%, negative = inhibition) at 1uM |
| --- | --- |
| Cc1cccc(C)c1NC(=S)NCCCN1CCCC1=O | 7.07% |
| CCc1nonc1NC(=O)COc1ccc(Cl)c(C)c1 | 15% |
| O=C1CCCN1CCNC(=S)Nc1ccccc1 | 0.761% |
| O=Cc1ccc(OC2OCCOC2Oc2ccc(C=O)cc2)cc1 (stereo not shown) | -39.7% |
| O=C(/C=C/c1ccc(Cl)cc1Cl)Nc1ccc(CN2CCOCC2)cc1 | -5.18% |
| COc1cccc(C(=O)Nc2ccc(N3CCN(C(=O)c4cccs4)CC3)cc2)c1 | 13.1% |
| COc1ccccc1OCC(=O)N/N=C1\CCCCc2ccccc21 | 2.11% |
| CCc1ccc(NC(=O)C2CCN(S(=O)(=O)c3ccc4c(c3)N(C(C)=O)CCO4)CC2)cc1 | 3.38% |
| CC(C)(C)NC(=O)CN(Cc1cccs1)C(=O)CCN1CCc2ccccc21 | 24% |
| COc1ccccc1N(Cc1ccccc1)S(=O)(=O)c1cccc(C(=O)Nc2ccc(C)cn2)c1 | 11.7% |
| O=C(CC1C=Cc2ccccc2N1C(=O)c1ccccc1)c1ccccc1 (stereo not shown) | 5.67% |
| CC(=O)Nc1ccc(S(=O)(=O)NNc2cccc(C)c2)cc1 | 15.2% |
| CCN(CC)S(=O)(=O)c1cccc(N=Nc2c(O)n(CC)c(=S)n(CC)c2=O)c1 | 3.49% |
| Cc1nc2sc(C(c3cccc(F)c3)N3CCCC(C)C3)c(O)n2n1 (stereo not shown) | 9.96% |
| CC(=O)NC1=NC(=O)C(C)S1 (stereo not shown) | 9.7% |
| Cc1cc(C)cc(OC(=O)CCN2C(=O)c3ccccc3C2=O)c1 | 12.5% |
| Cc1noc(C)c1C(=O)N1CCCC(C(=O)c2ccc(Cl)cc2)C1 (stereo not shown) | 5.61% |
| CCOc1ccccc1N(CC(=O)Nc1cccnc1)S(C)(=O)=O | 19.1% |
| CCCn1c(SCc2ccc(Cl)cc2)nc2c1c(=O)[nH]c(=O)n2C | 9.47% |
| O=C(NCc1ccccc1C(F)(F)F)C1CCC(=O)N(C2CCCCCC2)C1 (stereo not shown) | 10.2% |
| COc1cc(C2=NOC(C(=O)NCc3cccs3)C2)cc(OC)c1OC (stereo not shown) | 11.1% |
| Cc1cc(S(=O)(=O)N2CCN(c3ccccn3)CC2)c(C)cc1Cl | 6.32% |
| O=C(COC(=O)COc1ccccc1F)Nc1ccc2c(c1)OCO2 | 8.58% |
| CCOC(=O)C1CCN(c2cc3c(cc2NC(=O)c2ccccc2)n(C)c(=O)n3C)CC1 | 22% |
| COc1ccc(NC(=O)Cn2nc(C(=O)O)c3ccccc3c2=O)cc1OC | 15.2% |
| CC1(C)Cc2ccccc2-c2nc3ccccc3c(=O)n21 | -4% |
| Cc1cccc(-n2nnnc2SCC(=O)c2cc(C)n(CC3CCCO3)c2C)c1 (stereo not shown) | -21.8% |
| COc1ccc(S(=O)(=O)N2CCCCC2)cc1NC(=O)C1COc2ccccc2O1 (stereo not shown) | -10% |

| Compound | hERG current change (%, negative = inhibition) at 1uM |
| --- | --- |
| O=C(Nc1ccc(-c2nc3ncccc3o2)cc1)c1ccco1 | 14.2% |
| Cc1ccc(N(C(C)C(=O)N2CCC(C)CC2)S(C)(=O)=O)cc1C (stereo not shown) | -1.43% |
| CCN1C=C(C(=O)OC)C(c2cccc(C)c2)C(C(=O)OC)=C1 | 7.98% |
| COc1ccc(Cl)cc1NS(=O)(=O)c1c(C)[nH]c(=O)[nH]c1=O | 7.11% |
| CC1(c2ccccc2Cl)NC(=O)N(CC(=O)c2ccc3c(c2)OCO3)C1=O (stereo not shown) | 11.2% |
| N#Cc1ccccc1Cn1cc(C(=O)C2CC2)c2ccccc21 | 16% |
| Cc1nc2c(ccc3nc(NC(=O)c4ccc(S(=O)(=O)N(C)C)cc4)sc32)s1 | 16.4% |
| COS(=O)(=O)[O-].C[N+]1(C)CCC(=C(c2ccccc2)c2ccccc2)CC1 | -33.9% |
| COc1ccc(N2CC(O)=C(c3n(C)c4ccccc4[n+]3C)C2=N)cc1.[Cl-] | 2.05% |
| O=C(c1ccc(Br)o1)N1CCN=C1SCc1cccc(F)c1 | 3.74% |
| Cc1ccc(S(=O)(=O)N2CCC(C(=O)N3CCCC(C(F)(F)F)C3)CC2)cc1C (stereo not shown) | 2.5% |
| CCOc1ccc(NC(=O)N(C2CCCCC2)C(C)c2ccncc2)cc1 (stereo not shown) | 8.14% |
| Cc1ccc(S(=O)(=O)N2CCOCC2)cc1C(=O)OCC(=O)NC1CCCC(C)C1C (stereo not shown) | 7.26% |
| CC(C)CCN(CC(=O)NC(C)(C)C)C(=O)C(=O)Nc1ccc2c(c1)OCCO2 | 3.27% |
| COc1cc(C2SCC(=O)N2CCc2ccc(OC)c(OC)c2)ccc1O (stereo not shown) | 10.1% |
| CC(C)c1ccc(/C=C/C(=O)NNC(=O)c2cccnc2)cc1 | -3.93% |
| O=C1NC(=S)NC(=O)C12C(c1ccccc1)NC(=S)NC2c1ccccc1 (stereo not shown) | 1.89% |
| COC(=O)[C@@]1(Cc2ccccc2)[C@H]2c3cc(C(=O)N4CCCC4)n(Cc4ccsc4Br)c3C[C@H]2CN1C(=O)c1ccccc1 | 1.67% |
| CCn1cc(C(=O)OCc2cccc(Br)c2)c(=O)c2ccc(C)nc21 | 1.39% |
| CCCCCCOc1ccc(/C=C/C(=O)N2CCOCC2)cc1OC | 7.6% |
| CCOc1ccc(CCNC(=O)c2cc3c(s2)CS(=O)(=O)C3)cc1OCC | 29% |
| O=C(NC(=S)NCc1ccc2c(c1)OCO2)c1ccccc1 | 7.36% |
| O=[N+]([O-])c1ccc(N/N=C2/CCCCC2c2ccccn2)c([N+](=O)[O-])c1 (stereo not shown) | -9.21% |
| COc1ccc(/C=C/C(=O)N2CCOCC2)cc1OC | 15.4% |
| CCOC(=O)c1cnc2c(C)c(C)ccc2c1Nc1ccc(S(=O)(=O)Nc2ncccn2)cc1 | 0.471% |
| Cl.OCCN(CC#CC(O)(c1ccccc1)C1CCCCC1)CCO (stereo not shown) | 20.1% |
| Cc1cc(OCC(=O)OCC(=O)Nc2cc(C(F)(F)F)ccc2N2CCOCC2)ccc1Cl | 11.2% |

Source: article PMC4336329 (PLoS ONE, 2015)
